Data from publication PMC7111190 (Chemistry & Biology, 2008).

Assays:
SEC = target: the molecule itself; experiment: SEC
[1] = target: the molecule itself; experiment: AUC + other: circular dichroism
GCN4-pVg = experiment: SEC

| Binder | stoichiometry N [1] | further results |
| --- | --- | --- |
| MKVKQLEDAVEELLSANYHLENAVARLKKLVGER [GCN4-pAg] | – | stoichiometry N (SEC): 4 |
| MKVKQLVDKVEELLSKNYHLVNEVARLVKLVGERGGC (complex, disulfide bond between the C-terminal cysteines of the two chains) [pVe-ss-pVe] | 2 | – |
| MKVKQLEDVVEELLSVNYHLENVVARLKKLVGERGGC (complex, disulfide bond between the C-terminal cysteines of the two chains) [pVg-ss-pVg] | 2 | – |
| MKVKQLVDKVEELLSKNYHLVNEVARLVKLVGER [GCN4-pVe] | – | ratio of the heterotetramer complex to the combined homotetramers (GCN4-pVg): ~50 ratio (to 1) |
